Data reported in the supplement of paper PMC4967469.
IC50 is the fitted dose that halves viability relative to control wells, and lower means more sensitive; a limit (>, <) means that the fit lies beyond the doses tested. AUC sums up the same curve from the lowest dose to the 256-fold higher top dose: 1 means no effect, lower means more sensitive. A top dose marked as inferred is not printed in the source and was worked back from the curve model. For some assays here: An entry number marks a drug with two screens in the source, which often give different values.

Columns and labels:
Assay in all cases: Viability of human cancer cell lines after 72 h of drug (GDSC screen)
Olaparib = compound: O=C(c1cc(Cc2n[nH]c(=O)c3ccccc23)ccc1F)N1CCN(C(=O)C2CC2)CC1 [Olaparib]
Protocol: (§1)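 Human cancer cell lines in 384-well plates, medium with 10% serum, drug for 72 h over a 256-fold dose range (nine 2-fold or five 4-fold steps up to the top dose). Adherent lines were fixed and stained with the nucleic acid dye Syto60, suspension lines read with resazurin; signal relative to control wells, capped at 0 and 100%. One two-parameter sigmoid per drug and line, fitted in a mixed model over all curves with the slope shared within a line.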

SB-525334 = compound: Cc1cccc(-c2[nH]c(C(C)(C)C)nc2-c2ccc3nccnc3c2)n1 [SB-525334]; conditions: top dose 20 µM; top dose inferred
Protocol: as §1

VX-702 = compound: NC(=O)c1ccc(N(C(N)=O)c2c(F)cccc2F)nc1-c1ccc(F)cc1F [VX-702]; conditions: top dose 2 µM; top dose inferred
Protocol: as §1

A-770041 = compound: COc1cc(-c2nn([C@H]3CC[C@H](N4CCN(C(C)=O)CC4)CC3)c3ncnc(N)c23)ccc1NC(=O)c1cc2ccccc2n1C [A-770041]; conditions: top dose 5.12 µM; top dose inferred
Protocol: as §1

Wee1 inhibitor 681640 = compound: O=C1NC(=O)c2c1c(-c1ccccc1Cl)cc1[nH]c3ccc(O)cc3c21 [Wee1 inhibitor 681640]; conditions: top dose 2 µM; top dose inferred
Protocol: as §1

BIRB 0796 = compound: Cc1ccc(-n2nc(C(C)(C)C)cc2NC(=O)Nc2ccc(OCCN3CCOCC3)c3ccccc23)cc1 [BIRB 0796]; conditions: top dose 10 µM; top dose inferred
Protocol: as §1

XMD8-85 = compound: COc1cc(N2CCN(C)CC2)ccc1Nc1ncc2c(n1)N(C)c1ccccc1C(=O)N2C [XMD8-85]; conditions: top dose 8 µM; top dose inferred
Protocol: as §1

BMS-536924 = compound: Cc1cc(N2CCOCC2)cc2[nH]c(-c3c(NC[C@@H](O)c4cccc(Cl)c4)cc[nH]c3=O)nc12 [BMS-536924]
Protocol: as §1

Shikonin = compound: CC(C)=CC[C@@H](O)C1=CC(=O)c2c(O)ccc(O)c2C1=O [Shikonin]; conditions: top dose 16 µM; top dose inferred
Protocol: as §1

CGP-082996 (CINK4) = compound: CCNc1cc(NC2CCC(O)CC2)nc(Nc2ccc3c(ccn3Cc3ccccc3)c2)n1 [CGP-082996 (CINK4)]; conditions: top dose 5.12 µM; top dose inferred
Protocol: as §1

[1] = top dose 5 µM, screen: GDSC drug entry 1017, top dose inferred
[2] = top dose 10 µM, screen: GDSC drug entry 1495
[3] = top dose 4 µM, screen: GDSC drug entry 1091, top dose inferred
[4] = top dose 5.12 µM, screen: GDSC drug entry 62

| Cell Line | AUC (Olaparib; [1]) | IC50 (Olaparib; [1]) | AUC (Olaparib; [2]) | IC50 (Olaparib; [2]) | AUC (SB-525334) | IC50 (SB-525334) | AUC (VX-702) | IC50 (VX-702) | AUC (A-770041) | IC50 (A-770041) | AUC (Wee1 inhibitor 681640) | IC50 (Wee1 inhibitor 681640) | AUC (BIRB 0796) | IC50 (BIRB 0796) | AUC (XMD8-85) | IC50 (XMD8-85) | AUC (BMS-536924; [3]) | IC50 (BMS-536924; [3]) | AUC (BMS-536924; [4]) | IC50 (BMS-536924; [4]) | AUC (Shikonin) | IC50 (Shikonin) | AUC (CGP-082996 (CINK4)) | IC50 (CGP-082996 (CINK4)) |
| --- | --- | --- | --- | --- | --- | --- | --- | --- | --- | --- | --- | --- | --- | --- | --- | --- | --- | --- | --- | --- | --- | --- | --- | --- |
| KS-1 (glioma, adherent) | 0.969 | > 5 µM | 0.738 | 3.6 µM | 0.856 | > 20 µM | 0.975 | > 2 µM | 0.64 | 0.864 µM | 0.958 | > 2 µM | 0.975 | > 10 µM | 0.811 | 5.62 µM | 0.736 | 1.42 µM | 0.354 | 0.114 µM | 0.23 | 0.131 µM | 0.835 | 4.59 µM |
| KU812 (chronic myeloid leukaemia, suspension) | 0.961 | > 5 µM | 0.935 | > 10 µM | 0.954 | > 20 µM | 0.958 | > 2 µM | 0.812 | 2.44 µM | 0.943 | > 2 µM | 0.988 | > 10 µM | 0.865 | 6.07 µM | 0.896 | > 4 µM | 0.949 | > 5.12 µM | 0.143 | 0.0889 µM | 0.942 | > 5.12 µM |
| KY821 (leukaemia, suspension) | 0.984 | > 5 µM | 0.974 | > 10 µM | 0.977 | > 20 µM | 0.98 | > 2 µM | 0.834 | 2.75 µM | 0.949 | > 2 µM | 0.992 | > 10 µM | 0.96 | > 8 µM | 0.915 | > 4 µM | 0.863 | 3.53 µM | 0.434 | 0.676 µM | 0.933 | > 5.12 µM |
| L-363 (myeloma, suspension) | 0.962 | > 5 µM | 0.962 | > 10 µM | 0.971 | > 20 µM | 0.928 | > 2 µM | 0.968 | > 5.12 µM | 0.954 | > 2 µM | 0.985 | > 10 µM | 0.888 | 6.87 µM | 0.6 | 0.452 µM | 0.501 | 0.321 µM | 0.659 | 2.59 µM | 0.914 | > 5.12 µM |
| L-540 (Hodgkin lymphoma, suspension) | 0.984 | > 5 µM | 0.895 | 9.87 µM | 0.965 | > 20 µM | 0.959 | > 2 µM | 0.98 | > 5.12 µM | 0.941 | > 2 µM | 0.923 | > 10 µM | 0.876 | 6.46 µM | 0.877 | 3.25 µM | 0.894 | 4.99 µM | 0.782 | 5.92 µM | 0.943 | > 5.12 µM |
| L-1236 (Hodgkin lymphoma, suspension) | 0.992 | > 5 µM | 0.989 | > 10 µM | 0.943 | > 20 µM | 0.984 | > 2 µM | 0.967 | > 5.12 µM | 0.987 | > 2 µM | 0.992 | > 10 µM | 0.853 | 4.8 µM | 0.814 | 1.77 µM | 0.701 | 1.06 µM | 0.647 | 2.38 µM | 0.99 | > 5.12 µM |
| LAMA-84 (chronic myeloid leukaemia, suspension) | 0.938 | > 5 µM | 0.955 | > 10 µM | 0.955 | > 20 µM | 0.852 | 1.59 µM | 0.378 |  | 0.81 | 1.07 µM | 0.97 | > 10 µM | 0.902 | > 8 µM | 0.981 | > 4 µM | 0.792 | 2.35 µM | 0.54 | 1.29 µM | 0.911 | > 5.12 µM |
| LC4-1 (lymphoblastic leukaemia, suspension) | 0.985 | > 5 µM | 0.915 | > 10 µM | 0.938 | > 20 µM | 0.984 | > 2 µM | 0.892 | > 5.12 µM | 0.98 | > 2 µM | 0.978 | > 10 µM | 0.772 | 3.41 µM | 0.977 | > 4 µM | 0.935 | > 5.12 µM | 0.38 | 0.45 µM | 0.894 | > 5.12 µM |
| LOUCY (T-cell lymphoblastic leukaemia, suspension) | 0.986 | > 5 µM | 0.973 | > 10 µM | 0.952 | > 20 µM | 0.992 | > 2 µM | 0.967 | > 5.12 µM | 0.924 | > 2 µM | 0.988 | > 10 µM | 0.961 | > 8 µM | 0.991 | > 4 µM | 0.983 | > 5.12 µM | 0.436 | 0.692 µM | 0.989 | > 5.12 µM |
| LS-411N (large intestine, adherent) | 0.959 | > 5 µM | 0.962 | > 10 µM | 0.908 | > 20 µM | 0.972 | > 2 µM | 0.937 | > 5.12 µM | 0.963 | > 2 µM | 0.969 | > 10 µM | 0.826 | 6.3 µM | 0.892 | > 4 µM | 0.576 | 0.542 µM | 0.593 | 1.9 µM | 0.861 | > 5.12 µM |
| LU-134-A (small cell lung carcinoma, suspension) | 0.932 | > 5 µM | 0.938 | > 10 µM | 0.947 | > 20 µM | 0.986 | > 2 µM | 0.962 | > 5.12 µM | 0.985 | > 2 µM | 0.977 | > 10 µM | 0.938 | > 8 µM | 0.879 | > 4 µM | 0.791 | 2.47 µM | 0.45 | 0.725 µM | 0.986 | > 5.12 µM |
